Source: PubChem BioAssay AID624202 (National Center for Advancing Translational Sciences (NCATS), 2012)
The whole screen tested about 380,000 compounds, of which about 4,000 (1.1%) were called active. This list was built around the results that the source calls inconclusive (neither active nor inactive); the mix of calls is not that of the screen. Calls come from the whole dose curve; as a rule, active = well fitted activation curve with a large enough effect; inconclusive = small, poorly fitted or top-dose-only effect; inactive = no such curve, though single readings can be large or run the other way. A potency beside an inconclusive call is a rough fit, not a confirmed value.

Assay: qHTS Assay to Identify Small Molecule Activators of BRCA1 Expression; note: nearly all actives have a fitted effect of over 80% in size
Conditions: MCF7-BRCA1-FFLuc reporter, luminescence, 48 h; activation: at 46.1 µM (top of the series), scaled: vehicle 0%, 10 µM genistein 100% unless noted
How it was run: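 MCF7-BRCA1-FFLuc cells, 2000/well in phenol-red-free MEM, attached 2 h then treated 48 h at 37 C. Luciferase luminescence read 15 min after reagent; normalized to genistein maximum activation (10microM) and DMSO, concentration-response fitted.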
Potency is the fitted concentration of half-maximal effect; tags give direction and shape of the fitted curve.

Row | Structure (SMILES) | Potency | activation
1 | CN(C)CCN(C(=O)c1ccc(S(=O)(=O)N(C)c2ccccc2)cc1)c1nc2cc3c(cc2s1)OCCO3 | inconclusive: 11.2 µM [activator, partial curve, poor fit] | –
2 | O=C(O)/C=C/C(=O)Nc1ccc(N2CCOCC2)nc1N1CCOCC1 | inactive | –
3 | Cc1c(C(=O)O)cccc1-n1c(C)cc(/C=N/Nc2ccc([N+](=O)[O-])cn2)c1C | inconclusive: 35.5 µM [activator, single point] | –
4 | CCN(CC)CCn1c(C)nc2ccccc21 | inactive | –
5 | CN(Cc1cn[nH]c1-c1ccc(-c2ccccc2)cc1)CC1CCOCC1 | inconclusive: 15.8 µM [activator, partial curve, poor fit] | –
6 | COc1ccc(C(=O)Nc2nnc(-c3ccco3)s2)cc1 | – | inconclusive: -35.5% [activator]
7 | Nc1ccc(Oc2cc(N)cc(Oc3ccccc3)c2)cc1 | active: 7.08 µM | –
8 | O/N=C/c1ccc2ccccc2c1 | inconclusive: 31.6 µM [activator, single point] | –
9 | CC1CN(c2ncc(/C=N/NC(=O)c3ccccc3O)s2)CC(C)O1 (stereo not drawn) | inactive | –
10 | Cc1ccc(C2CCN(C(=O)Nc3ccccc3)C2)cc1 (stereo not drawn) | active: 5.01 µM | –
11 | Cc1ccc(OCC(=O)NCc2ccccn2)c(Br)c1 | inconclusive: 17.8 µM [activator, partial curve, poor fit] | –
12 | O=C(N/N=C/c1cccc2ccccc12)c1ccccc1Cl | inconclusive: 12.6 µM [activator, single point] | –
13 | COc1ccc(/C=C/c2ccc3cccc(O)c3n2)cc1Br | inactive | –
14 | CCOC(=O)c1cc(-c2ccc(N)cc2)sc1N | inconclusive: 3.16 µM [activator, full curve, poor fit] | –
15 | O=C(NC1=NCCS1)c1ccc(Cl)cc1 | active: 7.94 µM | –
16 | CC(=NNC(=O)c1cccs1)c1ccc2c(c1)OCCO2 | inconclusive: 2.51 µM [activator, full curve, poor fit] | –
17 | Cc1ccc(CN(C(=O)COc2ccc([N+](=O)[O-])cc2)c2ccccn2)cc1 | inactive | –
18 | S=C(NCc1ccccc1)Nc1cccc2ccccc12 | inactive | –
19 | CCOC(=O)c1ccccc1-n1c(C)cc(C2N=C(N)Nc3nc4ccccc4n32)c1C (stereo not drawn) | inactive | –
20 | Cc1ccc(-c2cc(-c3ccccc3)no2)cc1 | inconclusive: 0.501 µM [activator, full curve, poor fit] | –
21 | CC(C)OC(=O)CSc1nnc(CNc2nc(-c3ccccc3)cs2)n1C | inactive | –
22 | CC1=NNC(=O)/C1=C\c1cn(-c2ccccc2)nc1-c1ccc(F)cc1 | inactive | –
23 | Cn1ccc(C(=O)Nc2sc3c(c2C(N)=O)CCCCC3)n1 | inconclusive: 3.16 µM [activator, partial curve, poor fit] | –
24 | CCCCN(CC)CCNC(=O)CNC(=O)Cn1ccc2ccccc2c1=O | inconclusive: 3.16 µM [activator, partial curve, poor fit] | –

Row | Structure (SMILES) | Potency | activation
25 | CN(C(=O)c1cccnc1)c1nc(-c2ccccc2)cs1 | inconclusive: 10 µM [activator, partial curve, poor fit] | –
26 | CSc1ccc(/C=C/C(=O)N2CCCN(C)CC2)cc1 | active: 8.91 µM | –
27 | Cc1cccc(-c2nc(C#N)c(N3CCCCCC3)o2)c1 | inconclusive: 22.4 µM [activator, single point] | –
28 | COC(=O)c1ccc(COc2ccc3c4c(c(=O)oc3c2)CCC4)o1 | inconclusive: 20 µM [activator, single point] | –
29 | Cc1csc(NC(=O)c2sccc2C)n1 | inconclusive: 2.24 µM [activator, full curve, poor fit] | –
30 | COc1ccc(C)cc1NC(=O)CCS(=O)(=O)c1cc2c3c(c1)CCN3C(=O)CC2 | inactive | –
31 | COc1cccc(NC(=S)N2CCCC2c2ccc(OC)c(OC)c2)c1 (stereo not drawn) | inconclusive: 15.8 µM [activator, single point] | –
32 | CC1(C)CC(=O)C=C(c2ccc(-c3ccc4[nH]ccc4c3)cc2)C1=O | inconclusive: 1.58 µM [activator, partial curve, poor fit] | –
33 | Fc1cc2nc(-c3ccncc3)[nH]c2cc1F | inconclusive: 14.1 µM [activator, partial curve, poor fit] | –
34 | O=C(CNC(=O)c1ccccc1)OC1CCCCC1 | inconclusive: 3.55 µM [activator, partial curve, poor fit] | –
35 | COc1ccc2c(c1)c(=O)oc1cc(O)ccc12 | inconclusive: 20 µM [activator, single point] | –
36 | C(=C\c1ccccc1)/C=N/N1CCN(Cc2ccccc2)CC1 | active: 11.2 µM | –
37 | Cc1cccn2c(=O)c3cc(C(=O)NCc4ccc(F)cc4)c(=N)n(CC4CCCO4)c3nc12 (stereo not drawn) | inactive | –
38 | O=C(c1cc(COc2c(F)cccc2F)on1)N1CC[C@@H]2CCCC[C@H]2C1 | inconclusive: 11.2 µM [activator, partial curve, poor fit] | –
39 | Cc1ccc(NC(=O)CCc2c(C)nn(-c3ccc(N4CCCCC4)nn3)c2C)cc1F | active: 3.16 µM | –
40 | O=C(Nc1cccc(-c2nnc(-c3ccccc3)o2)c1)C1CCCO1 (stereo not drawn) | inconclusive: 2.82 µM [activator, full curve, poor fit] | –
41 | CCN1CCN(Cc2ccc(NC(=O)Nc3ccccc3OC)cc2)CC1 | inconclusive: 4.47 µM [activator, partial curve, poor fit] | –
42 | Cc1ccc(S(=O)(=O)N/N=C/c2cccc([N+](=O)[O-])c2)cc1 | inactive | –
43 | CC(C)(C)S(=O)(=O)/C(C#N)=N/Nc1ccc(C#N)cc1 | inactive | –
44 | Cc1cc(/C=C2\SC(=S)NC2=O)c(C)n1C1CC1 | active: 12.6 µM | –
45 | CCc1cc2c(SCC(=O)c3ccccc3)ncnc2s1 | inconclusive: 15.8 µM [activator, partial curve, poor fit] | –
46 | COc1ccccc1N1CCN(S(=O)(=O)c2ccc3c(c2)CC(C)N3C(C)=O)CC1 (stereo not drawn) | inactive | –
47 | COc1ccc(Cc2nc(-c3ccccn3)no2)cc1 | inconclusive: 14.1 µM [activator, partial curve, poor fit] | –
48 | COc1ccccc1/C=C/C(=O)NC(=S)Nc1ccccn1 | inactive | –
